The results in this text go back to publication PMC7819943, “Rice protein-binding microarrays: a tool to detect cis-acting elements near promoter regions in rice”.

This is one part of the list.

In this experiment the target is T1, OsWOX13 (Oryza sativa, UniProt Q5QMM3 1-267).
T1 sequence: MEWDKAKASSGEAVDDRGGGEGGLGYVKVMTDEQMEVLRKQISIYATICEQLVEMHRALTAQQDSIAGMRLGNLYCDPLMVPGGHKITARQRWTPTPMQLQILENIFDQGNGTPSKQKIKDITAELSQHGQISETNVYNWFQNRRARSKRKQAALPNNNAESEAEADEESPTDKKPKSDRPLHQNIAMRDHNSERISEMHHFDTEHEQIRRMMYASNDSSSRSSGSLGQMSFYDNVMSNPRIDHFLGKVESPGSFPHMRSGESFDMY
The experiment is described as follows: protein-binding microarray (RPBM); PBS, 2% BSA, 51.3 ng/ul salmon testes DNA, 50 uM zinc acetate, 200 nM TF, 25 C, 1 h; high values mean tight binding. To be noted: protein: recombinant; tags: N-terminal polyhistidine and DsRed monomer fusion (pET32a); label: CyDye5-dUTP incorporated in the synthesized complementary strand; 3' TTTTT single-stranded linker to array surface; dsDNA, one strand shown. In short, it runs like this:
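Binding signal here means per-feature fluorescence intensity in arbitrary units. The values were read on an Axon 4000B scanner after a custom Agilent array, double-stranded by primer extension with Cy5-dUTP, was incubated with 200 nM protein at 25 °C for 1 h in PBS with 2% BSA, salmon testes DNA and 50 µM zinc acetate, then washed. The proteins were transcription factors with an N-terminal polyhistidine tag and DsRed, expressed in E. coli BL21-CodonPlus and purified on Ni–NTA.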
Turning to “GAAATCAATTTCTTATTGTCAAGCATGATAATATGCATCACGGAGTCACCTAGTGCAG”, the binding signal was 6020 fluorescence intensity (a.u.).

For the sequence “CAGTATATTGATACACTGATGCAATCATACAATATTGTGACGGAGTCACCTAGTGCAG”, the binding signal was 5680 fluorescence intensity (a.u.). The value for “ACCGTGATGAGCAGCTCCGTGCAGTTTATTTTGGTCAGATCGGAGTCACCTAGTGCAG” was 7060 fluorescence intensity (a.u.). The value for “ATAAATTACCTAATGCAGTGGGCTGGTCTGGTGCATCGCCCGGAGTCACCTAGTGCAG” was 18800 fluorescence intensity (a.u.); that for “ACTGTCAAATCATGGCACAATTAGGCTTAAAATATTCGTCCGGAGTCACCTAGTGCAG” was 5650 fluorescence intensity (a.u.); that for “CTACAAATTAATAATTAGTGACGTTGATTATATATCAAAACGGAGTCACCTAGTGCAG” was 29000 fluorescence intensity (a.u.). “AGTAAAACAGAATGCCAAATTAGTGCACGATTAAGGCCCTCGGAGTCACCTAGTGCAG”: the binding signal was 4250 fluorescence intensity (a.u.).

“AACTCAATTTGTATAGTTAAGGGACATAAAATGGACTTTGCGGAGTCACCTAGTGCAG”: the binding signal is 4960 fluorescence intensity (a.u.). Turning to “TAAACCTAATTAATCTATAATTAGATAATGTTTACTGTAGCGGAGTCACCTAGTGCAG”, the binding signal was 40200 fluorescence intensity (a.u.). With “AGATAATCCATAATAATAATTAGCTTAATAATCTAAATCACGGAGTCACCTAGTGCAG” the figure was 10800 fluorescence intensity (a.u.); with “CATATGATCTGGCTAACTGGCTTGACTTAACCAACTATATCGGAGTCACCTAGTGCAG”, 4350 fluorescence intensity (a.u.); with “TGATTAATGAGAGAACAGATTCGCCATGGCCACAAGCACGCGGAGTCACCTAGTGCAG”, 3520 fluorescence intensity (a.u.). The value for “GTGCCATCCTGATTTGTCCCTCCCTGTCGCCTCACTGTTTCGGAGTCACCTAGTGCAG” was 6910 fluorescence intensity (a.u.); that for “TGGCGCCAACAAGGTAACTTAATTGAGGCTTTAATTGAGGCGGAGTCACCTAGTGCAG” was 8120 fluorescence intensity (a.u.). Turning to “CCAATTAATTAATCCTTCGTCCTCACCATCCAAAATGTTTCGGAGTCACCTAGTGCAG”, the binding signal is 32100 fluorescence intensity (a.u.).

For the sequence “CAGAATTTACAAAATGGATTGACCAAAAGCCTAATTAATTCGGAGTCACCTAGTGCAG”, the binding signal is 7770 fluorescence intensity (a.u.). With “TTCAAATTTATGGTATTAGGATGTGTTATATCTAGTACTACGGAGTCACCTAGTGCAG” the figure was 3530 fluorescence intensity (a.u.).

Consider “ACATGATTTTCACATTTCTAACACTTGATATTTCTCCTTACGGAGTCACCTAGTGCAG”, for which the binding signal was 5510 fluorescence intensity (a.u.). The value for “TAACGTGATTATAACATGTCAAACCATTTTACTTAGCCAGCGGAGTCACCTAGTGCAG” was 24600 fluorescence intensity (a.u.); that for “AAGATGTTGGCTTAAATTGAAATTACATACTAATTACACTCGGAGTCACCTAGTGCAG” was 12000 fluorescence intensity (a.u.).

Take “TTAAAATAAAACATTGTCATTGACATGATTATGCATGAAACGGAGTCACCTAGTGCAG”: the binding signal was 4650 fluorescence intensity (a.u.). The value for “TCTGACTGCAGGATGGAAGATTGTAAGTACTGTACTAAACCGGAGTCACCTAGTGCAG” was 4650 fluorescence intensity (a.u.); that for “ACATCTAATTTATTACTAGTTCACATTTAATATGTATATACGGAGTCACCTAGTGCAG” was 7800 fluorescence intensity (a.u.); that for “GTAGATATAGATAGATAGATTTAATTTTGATAATGGATAGCGGAGTCACCTAGTGCAG” was 31800 fluorescence intensity (a.u.). As to “ATAGATAACTGATTTTATGTTTGTGAGTGAGCATTGGTATCGGAGTCACCTAGTGCAG”, the binding signal was 24300 fluorescence intensity (a.u.).

“ATAGACAAACTAAATAAGGGTTAATTGGATCCATGCCATTCGGAGTCACCTAGTGCAG”: the binding signal was 12700 fluorescence intensity (a.u.).

On to “GGCGCATACTTGATTTTGATTAGGAAATCTGAAAACTCCCCGGAGTCACCTAGTGCAG”, for which the binding signal was 15300 fluorescence intensity (a.u.). In the case of “GTACCGTGATTAATCAGAGTTACTCCCTCCGTTATAGGTTCGGAGTCACCTAGTGCAG”, the binding signal was 23500 fluorescence intensity (a.u.).

As for “TTGGCAAAATCCAATCAAATTCTGTCCTCTCCTGCGAACCCGGAGTCACCTAGTGCAG”, the binding signal was 3910 fluorescence intensity (a.u.). Take “ACATAATTTAATCCATGGTTACTTTGTAGCTGACATTTTACGGAGTCACCTAGTGCAG”: the binding signal is 11500 fluorescence intensity (a.u.). With “GGGACAATCAGGGATTGTATGGTTTGAAGCTGATTTTGGCCGGAGTCACCTAGTGCAG” the figure was 3320 fluorescence intensity (a.u.); with “TTTGTTCATATCAAATGCCCTGATTGATATGTATTCCAAACGGAGTCACCTAGTGCAG”, 36500 fluorescence intensity (a.u.); with “TTTTAAAATTTAACAAATATAATTATAATACAATTGTGGTCGGAGTCACCTAGTGCAG”, 14700 fluorescence intensity (a.u.). The value for “CACGCGACGCGGTGAATTGATTGATCGACCGATTCCTCCCCGGAGTCACCTAGTGCAG” was 26400 fluorescence intensity (a.u.); that for “CACTATAATTTAACATACAAACTTCAAAATTTATCGTGAACGGAGTCACCTAGTGCAG” was 8310 fluorescence intensity (a.u.); that for “AAGTTATAATGTAATTACATACAAGTTACAGTATAATTACCGGAGTCACCTAGTGCAG” was 8690 fluorescence intensity (a.u.).

As for “CTTCTGATAACAACTGATTAGAAACTATGTTAATTTGATGCGGAGTCACCTAGTGCAG”, the binding signal is 31100 fluorescence intensity (a.u.). For “ATTAATTTGTCTGGGAGCATTTTACTTGACAAAGTTTTGCCGGAGTCACCTAGTGCAG”, the binding signal was 18500 fluorescence intensity (a.u.). The value for “GATAATTTGAACCATAGATTTATCATTCAAAGGCTATAAACGGAGTCACCTAGTGCAG” was 9720 fluorescence intensity (a.u.); that for “TTTTAAGTCATAATTGATGTGAAGATAGAGTAAGTGCATTCGGAGTCACCTAGTGCAG” was 10400 fluorescence intensity (a.u.).

On to “GTAGACAGATTCGTAGTATTTGATTATGTGTCTTATCATCCGGAGTCACCTAGTGCAG”, for which the binding signal was 7710 fluorescence intensity (a.u.). The value for “GTACAATAATTTGCAAATTAAGTAGTTGTACCGTTGGTAGCGGAGTCACCTAGTGCAG” was 35400 fluorescence intensity (a.u.).
